{
  "source": "the BET-seq Pho4 binding data (Le et al. 2018)",
  "note": "This is one part of the list. The energies were worked out here from pooled read counts, against the library average; single values are noisy.",
  "data": [
    {"biological_target": "T1, Pho4 (S. cerevisiae) (UniProt P07270)", "T1 sequence": "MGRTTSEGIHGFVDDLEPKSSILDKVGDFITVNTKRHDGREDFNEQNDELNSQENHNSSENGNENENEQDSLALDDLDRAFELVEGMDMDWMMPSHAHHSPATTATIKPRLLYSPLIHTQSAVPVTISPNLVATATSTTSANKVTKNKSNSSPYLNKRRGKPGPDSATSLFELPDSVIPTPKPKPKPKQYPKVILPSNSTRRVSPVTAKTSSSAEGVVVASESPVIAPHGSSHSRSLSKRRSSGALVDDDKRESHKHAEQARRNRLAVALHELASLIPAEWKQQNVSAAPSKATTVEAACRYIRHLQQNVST", "assay": "relative binding free energy (BET-seq); higher = weaker binding", "details": "reference: library average", "units": {"relative binding free energy": "kcal/mol"}, "values": [
      {"sequence": "GGTAACACGTGACAGG", "relative binding free energy": 0.24},
      {"sequence": "GAAGACACGTGTAGGT", "relative binding free energy": -0.02},
      {"sequence": "TGTTCCACGTGTTTAA", "relative binding free energy": 0.06},
      {"sequence": "TTGAGCACGTGTTCTG", "relative binding free energy": -0.15},
      {"sequence": "GGTTACACGTGTATTC", "relative binding free energy": 0.19},
      {"sequence": "GGGAGCACGTGAAGTG", "relative binding free energy": 0.2},
      {"sequence": "TTGTACACGTGGTAAG", "relative binding free energy": 0},
      {"sequence": "TTGAGCACGTGGATGT", "relative binding free energy": 0.02},
      {"sequence": "GTGGGCACGTGAAGGG", "relative binding free energy": 0.23},
      {"sequence": "AGTATCACGTGTGACT", "relative binding free energy": 0.24},
      {"sequence": "GGATTCACGTGAGCTT", "relative binding free energy": 0.37},
      {"sequence": "AGGTTCACGTGGACTA", "relative binding free energy": 0.43},
      {"sequence": "TGTAGCACGTGGCATA", "relative binding free energy": -0.23},
      {"sequence": "TTTCACACGTGGGGAG", "relative binding free energy": 0.03},
      {"sequence": "ATGTACACGTGTTTAA", "relative binding free energy": 0.08},
      {"sequence": "GGGAGCACGTGGTTAA", "relative binding free energy": -0.18},
      {"sequence": "GTTCACACGTGAGTTG", "relative binding free energy": 0.34},
      {"sequence": "TTGCTCACGTGATGGT", "relative binding free energy": 0.29},
      {"sequence": "GGGTGCACGTGCGTAT", "relative binding free energy": -0.12},
      {"sequence": "GGGCGCACGTGGATGT", "relative binding free energy": 0},
      {"sequence": "GATTCCACGTGGTTGG", "relative binding free energy": 0.02},
      {"sequence": "TAGAGCACGTGAGTGT", "relative binding free energy": 0.08},
      {"sequence": "TTGCGCACGTGGGCGG", "relative binding free energy": -0.25},
      {"sequence": "TGAGTCACGTGCGGAT", "relative binding free energy": 0.02},
      {"sequence": "ATGGGCACGTGATATG", "relative binding free energy": 0.02},
      {"sequence": "CGCGGCACGTGTGGGC", "relative binding free energy": -0.13},
      {"sequence": "ACGATCACGTGTAGGG", "relative binding free energy": 0.11},
      {"sequence": "TTAGCCACGTGTATGT", "relative binding free energy": -0.03},
      {"sequence": "TGGGGCACGTGTAAAT", "relative binding free energy": 0.08},
      {"sequence": "GAGATCACGTGGGGAC", "relative binding free energy": 0.19},
      {"sequence": "TTTGACACGTGTATCG", "relative binding free energy": -0.11},
      {"sequence": "AGCAGCACGTGGGGGG", "relative binding free energy": -0.19},
      {"sequence": "GGTGGCACGTGACTGG", "relative binding free energy": 0.08},
      {"sequence": "AGTGGCACGTGACGGG", "relative binding free energy": 0},
      {"sequence": "AGAATCACGTGGAGGT", "relative binding free energy": 0.1},
      {"sequence": "ATGGTCACGTGAAGTT", "relative binding free energy": 0.35},
      {"sequence": "TTAGTCACGTGGCGTT", "relative binding free energy": -0.06},
      {"sequence": "GTGTGCACGTGTGTGT", "relative binding free energy": 0.19},
      {"sequence": "TAGTTCACGTGTCAGG", "relative binding free energy": 0.39},
      {"sequence": "AAGGGCACGTGGTAGC", "relative binding free energy": -0.17},
      {"sequence": "GGTGCCACGTGTGTCG", "relative binding free energy": -0.14},
      {"sequence": "GGGTACACGTGTTGTT", "relative binding free energy": 0.18},
      {"sequence": "CAGGTCACGTGGGTTT", "relative binding free energy": 0.1},
      {"sequence": "ATGCTCACGTGGTGTG", "relative binding free energy": 0.03},
      {"sequence": "AAGTTCACGTGGGGAT", "relative binding free energy": 0.12},
      {"sequence": "TGGTGCACGTGAAGAC", "relative binding free energy": 0.2},
      {"sequence": "TGAGCCACGTGGGATG", "relative binding free energy": -0.1},
      {"sequence": "GTATGCACGTGGGCAT", "relative binding free energy": -0.05},
      {"sequence": "AGAAACACGTGGGCGT", "relative binding free energy": -0.01},
      {"sequence": "GCGTTCACGTGGTGTG", "relative binding free energy": 0.19},
      {"sequence": "ATTGTCACGTGTGCTA", "relative binding free energy": -0.09},
      {"sequence": "GTTGGCACGTGGCGGT", "relative binding free energy": -0.14},
      {"sequence": "AGTCGCACGTGGGCGG", "relative binding free energy": -0.26},
      {"sequence": "TTAGCCACGTGGGATT", "relative binding free energy": -0.23},
      {"sequence": "GGGGCCACGTGGTATG", "relative binding free energy": -0.09},
      {"sequence": "GATGGCACGTGGGCGT", "relative binding free energy": -0.15},
      {"sequence": "TGTGTCACGTGGAAGG", "relative binding free energy": 0.18},
      {"sequence": "GGTGTCACGTGTCGAT", "relative binding free energy": 0.15},
      {"sequence": "TGAGTCACGTGGGATG", "relative binding free energy": 0.01},
      {"sequence": "TCAGACACGTGGGGGC", "relative binding free energy": -0.03},
      {"sequence": "TGTCTCACGTGCATGG", "relative binding free energy": 0.2},
      {"sequence": "TTGTACACGTGTATGT", "relative binding free energy": 0.11},
      {"sequence": "GGCGACACGTGGTGAA", "relative binding free energy": 0.1},
      {"sequence": "TTAATCACGTGGGTGT", "relative binding free energy": -0.05},
      {"sequence": "TACTTCACGTGGAAGT", "relative binding free energy": 0.32},
      {"sequence": "GGGGGCACGTGAACGT", "relative binding free energy": 0.14},
      {"sequence": "GTTGGCACGTGCGTCA", "relative binding free energy": -0.12},
      {"sequence": "GTACGCACGTGGTGAG", "relative binding free energy": -0.17},
      {"sequence": "CTTCTCACGTGTAGTT", "relative binding free energy": 0.36},
      {"sequence": "TATGTCACGTGTATTC", "relative binding free energy": -0.05},
      {"sequence": "CGGGTCACGTGTTTTA", "relative binding free energy": 0.14},
      {"sequence": "CGCGGCACGTGGGCGT", "relative binding free energy": -0.22},
      {"sequence": "GCCGTCACGTGTAGTG", "relative binding free energy": 0.26},
      {"sequence": "CCGGTCACGTGTGGCG", "relative binding free energy": 0.24},
      {"sequence": "AACGTCACGTGTTATG", "relative binding free energy": 0.06},
      {"sequence": "GTGAACACGTGATTTT", "relative binding free energy": 0.25},
      {"sequence": "TGGTTCACGTGGTTCA", "relative binding free energy": 0.22},
      {"sequence": "GTGGCCACGTGAGTTG", "relative binding free energy": 0.2},
      {"sequence": "AAGGGCACGTGGTTGC", "relative binding free energy": -0.23},
      {"sequence": "AATGGCACGTGTTCGT", "relative binding free energy": -0.1},
      {"sequence": "AGCGCCACGTGTGGTT", "relative binding free energy": 0.01},
      {"sequence": "GGTATCACGTGGTGGC", "relative binding free energy": 0.19},
      {"sequence": "TGATGCACGTGGTGAA", "relative binding free energy": -0.02},
      {"sequence": "GTAGACACGTGGGTAG", "relative binding free energy": -0.02},
      {"sequence": "GGTGACACGTGATTTT", "relative binding free energy": 0.12},
      {"sequence": "TAGGTCACGTGGTAGA", "relative binding free energy": 0},
      {"sequence": "GTGTGCACGTGGCGGG", "relative binding free energy": -0.09},
      {"sequence": "CAGGTCACGTGGTATA", "relative binding free energy": 0.12},
      {"sequence": "TGAGACACGTGTTGAT", "relative binding free energy": 0.12},
      {"sequence": "TTACTCACGTGGGATG", "relative binding free energy": 0.22},
      {"sequence": "GGGTACACGTGGTTCG", "relative binding free energy": 0.1},
      {"sequence": "GCAAGCACGTGAGTGT", "relative binding free energy": 0.19},
      {"sequence": "AAGGGCACGTGTGAGA", "relative binding free energy": -0.01},
      {"sequence": "ATATTCACGTGGATTG", "relative binding free energy": 0.21},
      {"sequence": "GGGCGCACGTGTACTG", "relative binding free energy": 0.01},
      {"sequence": "ATATTCACGTGGGACG", "relative binding free energy": 0.27},
      {"sequence": "AGTATCACGTGTGTAA", "relative binding free energy": 0.1},
      {"sequence": "TGGGACACGTGAAGAT", "relative binding free energy": 0.35},
      {"sequence": "GAGTTCACGTGAGTAA", "relative binding free energy": 0.42},
      {"sequence": "TCAGTCACGTGGTCGG", "relative binding free energy": -0.09},
      {"sequence": "TCTATCACGTGATGGG", "relative binding free energy": 0.15},
      {"sequence": "CGGGCCACGTGGCGGT", "relative binding free energy": -0.06},
      {"sequence": "GCGTACACGTGGGAGG", "relative binding free energy": -0.13},
      {"sequence": "GAGTTCACGTGGTATG", "relative binding free energy": 0.07},
      {"sequence": "GTGTACACGTGCGTTT", "relative binding free energy": -0.04},
      {"sequence": "GTAGTCACGTGAAAGT", "relative binding free energy": 0.31},
      {"sequence": "TTGGACACGTGTACTT", "relative binding free energy": 0.1},
      {"sequence": "GAAGGCACGTGAGCGT", "relative binding free energy": 0.06},
      {"sequence": "TGAATCACGTGGGGAT", "relative binding free energy": -0.06},
      {"sequence": "AATTGCACGTGTATAT", "relative binding free energy": 0.09},
      {"sequence": "TGTGGCACGTGAATCG", "relative binding free energy": 0.28},
      {"sequence": "CGTATCACGTGAGCGT", "relative binding free energy": 0.34},
      {"sequence": "AACGGCACGTGGTGGA", "relative binding free energy": -0.13},
      {"sequence": "TGGCACACGTGCAGGG", "relative binding free energy": -0.03},
      {"sequence": "GTGAGCACGTGGAAGC", "relative binding free energy": 0.06}
    ]}
  ]
}
